# According to the supplement of paper PMC9135407:
# Values joined by “and” are separate entries in the source; they are usually repeats but may differ in a detail not shown here. Identical values can stand only once. Counter-ions that a name gives are not always drawn. About 620 (11%) of roughly 5,800 compounds showed activity.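 Rule for the calls: active = score above a cut-off or among the top three wells of a plate; in these data no inactive exceeds 0.85.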 The list shows a part of the results, in another mix than the full data.
# Test system: primary human hepatic stellate cells (donor 1)
# Assay: scaled lipid accumulation score (0 = DMSO-like, 1 = nortriptyline-like); higher = stronger HSC inactivation (lipid re-accumulation), active = hit call of the paper
# Settings: 48 h
# [1] = library stock concentration: 10 mM
# [2] = library stock concentration: 3.33 mM
# [3] = library stock concentration: 80 uM
# [4] = library stock concentration: 400 uM
# [5] = library stock concentration: 2 mM
# [6] = library stock concentration: 1 mM
smiles,measurement,setting,value
CCCCC/C=C/CCC(=O)N[C@H]1[C@H](Oc2c3cc4cc2Oc2ccc(cc2Cl)[C@@H](O[C@@H]2O[C@H](CO)[C@@H](O)[C@H](O)[C@H]2NC(C)=O)[C@@H]2NC(=O)[C@H](NC(=O)[C@@H]4NC(=O)[C@H]4NC(=O)C(Cc5ccc(c(Cl)c5)O3)NC(=O)[C@H](N)c3ccc(O)c(c3)Oc3cc(O)cc4c3)c3ccc(O)c(c3)-c3c(OC4O[C@H](CO)[C@@H](O)[C@H](O)[C@@H]4O)cc(O)cc3[C@@H](C(=O)O)NC2=O)O[C@H](CO)[C@@H](O)[C@@H]1O (stereo not given in full) [Teicoplanin [a(2-1) shown]],scaled lipid accumulation score,library stock concentration: 1.1 mM,inactive: ≤ 0
[O-][n+]1cccc(CO)c1,scaled lipid accumulation score,[1],inactive: ≤ 0
COCc1nc2c([nH]1)c(=O)n(C)c(=O)n2CC(C)C [8-methoxymethyl-IBMX],scaled lipid accumulation score,library stock concentration: 18.8 mM,inactive: 0.036
COCc1nc2c([nH]1)c(=O)n(C)c(=O)n2CC(C)C [8-Methoxymethyl-3-isobutyl-1-methylxanthine],scaled lipid accumulation score,[1],inactive: 0.155
NC(=O)OCC(COC(N)=O)c1ccccc1 [Felbamate],scaled lipid accumulation score,[2],inactive: ≤ 0
same,scaled lipid accumulation score,[1],inactive: ≤ 0 and inactive: 0.1
CCC[S+]([O-])c1ccc2[nH]c(NC(=O)OC)nc2c1 (stereo not given) [Ricobendazole],scaled lipid accumulation score,library stock concentration: 7.1 mM,inactive: ≤ 0
CCC[S+]([O-])c1ccc2[nH]c(NC(=O)OC)nc2c1 (stereo not given) [Albendazole Oxide],scaled lipid accumulation score,[2],inactive: ≤ 0
same,scaled lipid accumulation score,[1],inactive: ≤ 0
C[C@H]1NC(=O)NC1=O [Methylhydantoin-5-(D)],scaled lipid accumulation score,,inactive: ≤ 0
Clc1ccc2c(c1)C(N1CCNCC1)=Nc1ccccc1O2 [Amoxapine],scaled lipid accumulation score,,active: 0.863
Cc1ccnc(NS(=O)(=O)c2ccc(N)cc2)n1 [Sulfamerazine],scaled lipid accumulation score,,inactive: ≤ 0
same,scaled lipid accumulation score,[2],inactive: ≤ 0
same,scaled lipid accumulation score,library stock concentration: 7.6 mM,inactive: ≤ 0
same,scaled lipid accumulation score,[1],inactive: ≤ -0.001 and inactive: ≤ 0
N=C(N)NCc1cccc(I)c1 [Iobenguane sulfate],scaled lipid accumulation score,,inactive: ≤ 0
"CCCCS(=N)(=O)CCC(N)C(=O)O (racemic) [DL-Buthionine-[S,R]-sulfoximine]",scaled lipid accumulation score,[1],inactive: ≤ 0
Cl.N#CC1=C(N)NC(=C2C(=O)C=CC=C2OCC2CC2)C=C1C1CCNCC1,scaled lipid accumulation score,[1],active: 1.09
CN(C)CCOc1ccc(-c2nc(-c3ccncc3)c(-c3ccc4c(c3)CC/C4=N\O)[nH]2)cc1,scaled lipid accumulation score,[3],inactive: 0.074
same,scaled lipid accumulation score,[4],inactive: 0.325 and inactive: 0.619
same,scaled lipid accumulation score,[5],inactive: 0.7 and inactive: 0.684
same,scaled lipid accumulation score,[1],inactive: 0.476 and inactive: 0.423 and inactive: 0.307
CN(C)CCCSC(=N)N [Dimaprit dihydrochloride],scaled lipid accumulation score,,inactive: ≤ 0
same,scaled lipid accumulation score,[1],inactive: ≤ 0
Cl.O[C@H](CNC[C@@H](O)[C@H]1CCc2cc(F)ccc2O1)[C@@H]1CCc2cc(F)ccc2O1 [Nebivolol hydrochloride],scaled lipid accumulation score,[1],active: 0.861
C[C@H](Cc1cc2c(c(C(N)=O)c1)N(CCCO)CC2)NCCOc1ccccc1OCC(F)(F)F [Silodosin],scaled lipid accumulation score,[2],inactive: ≤ 0
same,scaled lipid accumulation score,[1],inactive: ≤ 0
Cc1onc(-c2c(F)cccc2Cl)c1C(=O)N[C@@H]1C(=O)N2[C@@H]1SC(C)(C)[C@@H]2C(=O)O [Flucloxacillin sodium],scaled lipid accumulation score,,inactive: ≤ 0
C/C(=C\C(=O)Nc1ccccc1C(=O)O)c1ccc2ccccc2c1,scaled lipid accumulation score,[2],inactive: 0.029
same,scaled lipid accumulation score,[1],inactive: ≤ 0
O=C(c1ccc(/C=C/c2n[nH]c3ccccc23)cc1)N1CCNCC1,scaled lipid accumulation score,[3],inactive: ≤ -0.016
same,scaled lipid accumulation score,[4],inactive: ≤ -0.016
same,scaled lipid accumulation score,[5],inactive: ≤ -0.016
same,scaled lipid accumulation score,[2],inactive: 0.101
same,scaled lipid accumulation score,[1],inactive: 0.67
Cc1ccc(-n2sc(=O)n(Cc3ccc(F)cc3)c2=O)cc1,scaled lipid accumulation score,[2],inactive: 0.21
same,scaled lipid accumulation score,[1],inactive: 0.724
O=C(NCCN1CCOCC1)c1ccc(Cl)cc1,scaled lipid accumulation score,[2],inactive: ≤ 0
same,scaled lipid accumulation score,[1],inactive: ≤ 0
O=C(NCCN1CCOCC1)c1ccc(Cl)cc1 [Moclobemide],scaled lipid accumulation score,,inactive: 0.059
same,scaled lipid accumulation score,[1],inactive: 0.047
O=C(NCCN1CCOCC1)c1ccc(Cl)cc1 [4-Chloro-N-(2-morpholin-4-yl-ethyl)-benzamide],scaled lipid accumulation score,[1],inactive: ≤ 0
Cc1cc(Cl)ccc1OCCCC(=O)NO [Droxinostat],scaled lipid accumulation score,[2],inactive: ≤ 0
same,scaled lipid accumulation score,[1],inactive: ≤ 0 and inactive: 0.26
O=C1OC(O)C(c2cc3ccccc3s2)=C1Br (stereo not given),scaled lipid accumulation score,[6],inactive: 0.04
O=C(O)c1ccc(S(=O)(=O)N(Cl)Cl)cc1 [Halazone],scaled lipid accumulation score,[1],inactive: ≤ 0
O=C(Oc1ccccc1C(=O)O)c1ccccc1O [Sasapyrine],scaled lipid accumulation score,[2],inactive: ≤ 0
same,scaled lipid accumulation score,[1],inactive: ≤ -0.001
O=C(Oc1ccccc1C(=O)O)c1ccccc1O [Salsalate],scaled lipid accumulation score,library stock concentration: 7.7 mM,inactive: ≤ -0.001
COc1c(C)c2c(c(O)c1C/C=C(\C)CCC(=O)O)C(=O)OC2 [Mycophenolic acid],scaled lipid accumulation score,,inactive: ≤ 0
same,scaled lipid accumulation score,[2],inactive: ≤ 0
same,scaled lipid accumulation score,library stock concentration: 6.2 mM,inactive: ≤ -0.006 and inactive: ≤ 0
same,scaled lipid accumulation score,[1],inactive: ≤ 0 and inactive: 0.017
same,scaled lipid accumulation score,library stock concentration: 15.6 mM,inactive: ≤ -0.012
NS(=O)(=O)c1cc(Cl)c(Cl)c(S(N)(=O)=O)c1 [Dichlorphenamide],scaled lipid accumulation score,,inactive: ≤ 0
same,scaled lipid accumulation score,[2],inactive: 0.061
same,scaled lipid accumulation score,[1],inactive: ≤ 0
CCOC(=O)C1=C(N)Oc2ccc(Br)cc2[C@H]1[C@H](C#N)C(=O)OCC,scaled lipid accumulation score,[1],active: 1.15
CS(=O)(=O)c1ccc(-c2cnc(N)c(C(=O)Nc3ccccc3)n2)cc1,scaled lipid accumulation score,[3],inactive: 0.017
same,scaled lipid accumulation score,[4],inactive: ≤ 0
same,scaled lipid accumulation score,[5],inactive: ≤ 0
same,scaled lipid accumulation score,[2],inactive: 0.225
same,scaled lipid accumulation score,[1],inactive: 0.489
CCCCCNC(=N)N/N=C/c1c[nH]c2ccc(OC)cc12 [Tegaserod],scaled lipid accumulation score,[1],inactive: ≤ -0.027
CCCCCNC(=N)N/N=C/c1c[nH]c2ccc(OC)cc12,scaled lipid accumulation score,[1],inactive: 0.13
CCCCCNC(=N)N/N=C/c1c[nH]c2ccc(OC)cc12 [Tegaserod maleate],scaled lipid accumulation score,[1],inactive: ≤ -0.027
CCCCC/C=C\C/C=C\CC/C=C\CCCC(=O)OCC [Pinolenic Acid ethyl ester],scaled lipid accumulation score,[6],inactive: ≤ 0
CCN1CCCC(OC(=O)C(c2ccccc2)c2ccccc2)C1 (stereo not given) [Piperidolate hydrochloride],scaled lipid accumulation score,,inactive: 0.181
same,scaled lipid accumulation score,[1],inactive: 0.175
O=C(O)C1=CO[C@@H](O[C@@H]2O[C@H](CO)[C@@H](O)[C@H](O)[C@H]2O)[C@@H]2C(CO)=CC[C@H]12 [Geniposidic acid],scaled lipid accumulation score,[2],inactive: 0.014
same,scaled lipid accumulation score,[1],inactive: 0.021
Nc1ccc(C(=O)O)cc1 [Potassium p-aminobenzoate],scaled lipid accumulation score,[1],inactive: ≤ 0
Clc1ccc(C(c2ccc(Cl)cc2)[n+]2ccn(CC(OCc3ccc(Cl)cc3Cl)c3ccc(Cl)cc3Cl)c2)cc1 (stereo not given) [Calmidazolium chloride],scaled lipid accumulation score,[1],inactive: 0.037
CC(=O)N(OCc1ccccc1)[C@H]1c2cc(C#N)ccc2OC(C)(C)[C@H]1O,scaled lipid accumulation score,[1],inactive: ≤ 0
C[C@H]1O[C@@H](n2cc(F)c(=O)[nH]c2=O)[C@H](O)[C@@H]1O [Doxifluridine],scaled lipid accumulation score,[2],inactive: ≤ 0
same,scaled lipid accumulation score,library stock concentration: 8.1 mM,inactive: 0.021
same,scaled lipid accumulation score,[1],inactive: ≤ 0
C[C@H]1O[C@@H](n2cc(F)c(=O)[nH]c2=O)[C@H](O)[C@@H]1O [5-fluoro-5'-deoxyuridine],scaled lipid accumulation score,[1],inactive: ≤ -0.07
CC(C)(C)c1nc(-c2cccc(NS(=O)(=O)c3c(F)cccc3F)c2F)c(-c2ccnc(N)n2)s1,scaled lipid accumulation score,[2],inactive: ≤ 0
same,scaled lipid accumulation score,[1],inactive: ≤ 0
CC(C)(C)c1nc(-c2cccc(NS(=O)(=O)c3c(F)cccc3F)c2F)c(-c2ccnc(N)n2)s1 [Dabrafenib],scaled lipid accumulation score,[3],inactive: ≤ -0.016
same,scaled lipid accumulation score,[4],inactive: ≤ -0.016
same,scaled lipid accumulation score,[5],inactive: ≤ -0.016
same,scaled lipid accumulation score,[1],inactive: 0.02
N[C@@H](Cc1cc(CP(=O)(O)O)cc(-c2ccccc2Cl)c1)C(=O)O,scaled lipid accumulation score,[1],inactive: ≤ -0.006
Cc1c(C(=O)Nc2ccc(N3CCC(N4CCOCC4)CC3)c(C#N)c2)cnn1-c1ccc(Cl)cc1,scaled lipid accumulation score,[2],inactive: 0.756
same,scaled lipid accumulation score,[1],inactive: 0.699
OCC1OC(n2cnc3c(NC4CCCC4)nc(Cl)nc32)C(O)C1O (stereo not given) [2-Chloro-N6-cyclopentyladenosine],scaled lipid accumulation score,[1],inactive: 0.043
O=c1c(-c2ccc(O)cc2)coc2cc(O)ccc12 [Daidzein],scaled lipid accumulation score,[6],inactive: ≤ 0
same,scaled lipid accumulation score,[2],inactive: ≤ 0
CNCCCC12CCC(c3ccccc31)c1ccccc12.Cl [Maprotiline HCl],scaled lipid accumulation score,[1],active: 1.31
CC1(C)CC[C@]2(C(=O)O)CC[C@]3(C)C(=CC[C@@H]4[C@@]5(C)CC[C@H](O)C(C)(C)[C@@H]5CC[C@]43C)[C@@H]2C1 [Oleanolic Acid],scaled lipid accumulation score,[2],inactive: ≤ 0
same,scaled lipid accumulation score,[1],inactive: ≤ 0
O=C(O)CCCCC(CCSCc1ccccc1)SCc1ccccc1 (stereo not given),scaled lipid accumulation score,[2],inactive: ≤ 0
same,scaled lipid accumulation score,[1],inactive: ≤ 0
CC(C)NC[C@H](O)COc1cccc2ccccc12 [(S)-Propranolol hydrochloride],scaled lipid accumulation score,[1],inactive: 0.445
CC(C)NC[C@H](O)COc1cccc2ccccc12 [(S)-propranolol hydrochloride],scaled lipid accumulation score,,inactive: 0.444
CC(C)NC[C@H](O)COc1cccc2ccccc12 [(S)-(-)-Propranolol hydrochloride],scaled lipid accumulation score,[1],inactive: 0.518
CC(=O)CCCCn1c(=O)c2c(ncn2C)n(C)c1=O [Pentoxifylline],scaled lipid accumulation score,,inactive: ≤ 0
same,scaled lipid accumulation score,library stock concentration: 7.2 mM,inactive: 0.018 and inactive: ≤ 0
same,scaled lipid accumulation score,[1],inactive: ≤ 0 and inactive: ≤ -0.055 and inactive: ≤ -0.027
Cc1c(NC(=O)OC[C@@H]2COCCN2)cn2ncnc(Nc3ccc4c(cnn4Cc4cccc(F)c4)c3)c12.Cl,scaled lipid accumulation score,[2],active: 1.15
same,scaled lipid accumulation score,[1],active: 1.2
CN1C(=O)OC(C)(C)C1=O [Trimethadione],scaled lipid accumulation score,,inactive: ≤ 0
same,scaled lipid accumulation score,library stock concentration: 14 mM,inactive: ≤ 0
